# The supplement of paper PMC10441789
# This is one part of the list. Antibody binding of pooled human sera (four to six donors per pool; dilution not stated) to peptides of the Trypanosoma cruzi antigen TSSA on microarrays. Quantile-normalised fluorescence in arbitrary units, mean of duplicate arrays; higher = more binding. No active / inactive call. The uninfected pools are read here as the healthy donors of the same country. The strongest signals lie near the top of the scale (about 60,000).
# Tested on: pooled sera of uninfected people, Colombia
# Assay: antibody binding signal (normalised fluorescence) (arbitrary fluorescence units); higher = stronger serum antibody binding to peptide
# Description: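 Microarray of 15-residue peptides over residues 30-55 of Trypanosoma cruzi TSSAII, each with 1 to 10 substitutions at naturally variable positions, probed with one serum pool per country.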
row,Sequence,antibody binding signal
1,SGTEKKPATGGAPSP,185
2,GTEKKPATGETPSPS,201
3,SSTPPSGKDNKTAAG,222
4,GTDNKTATGETPSQS,124
5,TISTPPSGTENKAAA,1240
6,PSGKDKKAATGGTPS,164
7,KDKKTATGETPSPSG,89.5
8,GKDNKAATGEAPSPP,293
9,SGKDKKTATGEAPSQ,211
10,TPPSGKDKKPAAGGT,234
11,TDNKAATGEAPSPPG,112
12,KAAAGETPSPPGASS,101
13,TDNKTATGGTPSPSG,494
14,GKENKTATGGTPSPP,158
15,GTEKKPAAGETPSPP,150
16,KDNKPATGEAPSPSG,293
17,GTENKPATGEAPSQS,152
18,KENKTATGEAPSPPG,170
19,PSGTDNKAAAGGAPS,350
20,KDNKTATGEAPSQPG,278

row,Sequence,antibody binding signal
1,KDKKAAAGGTPSQPG,142
2,KENKAAAGGAPSPSG,116
3,KDNKPAAGEAPSPSG,258
4,DNKAAAGGAPSQSGA,213
5,DNKAATGGTPSPPGA,334
6,GKENKPAAGGTPSQP,195
7,PSGTEKKTAAGETPS,1220
8,PSGTDKKPATGEAPS,564
9,PSGKDKKAATGEAPS,197
10,PSGTEKKAATGEAPS,816
11,KDNKAAAGETPSPPG,191
12,SGKEKKPATGETPSP,180
13,SSTPPSGKENKTAAG,541
14,PPSGTDKKAAAGEAP,498
15,TPPSGTDNKTAAGET,248
16,KEKKPAAGGAPSPPG,86.5
17,PSGKDKKTAAGETPS,526
18,SGKEKKTATGEAPSP,156
19,GTDNKAAAGGAPSPS,287
20,STPPSGKEKKPATGG,365
